Measured values as given in the supplement of paper PMC7826260.
The list shows a part of the results. One pool of 16,384 single-stranded DNAs met each Rep nickase domain in vitro (1 h at 37 °C, 3 µM enzyme); the outer parts of the 90-letter strands are left off. Numbers give uncut DNA relative to the enzyme-free pool, as log2; strong cutting gives strongly negative numbers. There is no active / inactive call. The scaling is to total reads, so uncut sequences can rise above 0 when many others are cut.

Experiments:
Assay in all cases: uncleaved DNA left, log2 of reads against the no-enzyme library (log2 ratio); higher = less cleavage (more negative = more Rep cleavage of the k-mer); sequences stand for … in CTCGTCCG…ACCGGAGA
[1] = system: T1, Rep nickase domain of Muscovy duck circovirus
T1 sequence (Rep 1-111, printed without the tag): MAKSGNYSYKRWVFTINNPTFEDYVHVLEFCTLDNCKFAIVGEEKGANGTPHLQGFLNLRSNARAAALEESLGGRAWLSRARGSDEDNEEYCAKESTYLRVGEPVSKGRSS
Protocol: (§1)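 A pool of 90-nt single-stranded DNAs with seven random bases just before the constant AC of the nick site (name = the seven bases) was cut by 3 µM recombinant His6-SUMO-tagged Rep nickase domain (300 nM DNA, 50 mM HEPES pH 8.0, 50 mM NaCl, 1 mM MnCl2, 1 h, 37 °C, three replicates). Uncut DNA was amplified and sequenced.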

[2] = system: T2, Rep nickase domain of banana bunchy top virus
T2 sequence (Rep 1-94, printed without the tag): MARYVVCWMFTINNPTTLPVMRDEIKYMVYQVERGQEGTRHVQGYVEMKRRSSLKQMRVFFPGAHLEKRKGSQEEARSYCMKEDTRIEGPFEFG
Protocol: as §1

[3] = system: T3, Rep nickase domain of cabbage leaf curl virus
T3 sequence (Rep 1-116, printed without the tag): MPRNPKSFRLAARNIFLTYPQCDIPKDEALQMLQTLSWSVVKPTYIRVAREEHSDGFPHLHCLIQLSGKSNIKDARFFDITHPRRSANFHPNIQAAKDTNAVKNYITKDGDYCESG
Protocol: as §1

[4] = system: T4, Rep nickase domain of chickpea chlorotic dwarf virus
T4 sequence (Rep 1-124, printed without the tag): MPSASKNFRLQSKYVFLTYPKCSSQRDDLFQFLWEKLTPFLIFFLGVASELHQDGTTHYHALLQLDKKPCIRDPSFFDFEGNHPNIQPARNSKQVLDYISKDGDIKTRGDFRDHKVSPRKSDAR
Protocol: as §1

[5] = system: T5, Rep nickase domain of faba bean necrotic yellows virus
T5 sequence (Rep 1-98, printed without the tag): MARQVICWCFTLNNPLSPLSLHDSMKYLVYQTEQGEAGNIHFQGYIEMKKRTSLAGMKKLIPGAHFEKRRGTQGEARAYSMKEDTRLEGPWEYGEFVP
Protocol: as §1

[6] = system: T6, Rep nickase domain of maize striate mosaic virus
T6 sequence (Rep 1-117, printed without the tag): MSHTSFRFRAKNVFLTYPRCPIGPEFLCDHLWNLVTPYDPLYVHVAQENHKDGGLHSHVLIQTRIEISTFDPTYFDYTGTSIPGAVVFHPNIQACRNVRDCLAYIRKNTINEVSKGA
Protocol: as §1

[7] = system: T7, Rep nickase domain of porcine circovirus 2
T7 sequence (Rep 2-116, printed without the tag): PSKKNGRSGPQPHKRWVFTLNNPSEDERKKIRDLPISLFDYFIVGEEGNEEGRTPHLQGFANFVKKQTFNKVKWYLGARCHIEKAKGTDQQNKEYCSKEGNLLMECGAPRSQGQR
Protocol: as §1

[8] = system: T8, Rep nickase domain of tomato golden mosaic virus
T8 sequence (Rep 1-124, printed without the tag): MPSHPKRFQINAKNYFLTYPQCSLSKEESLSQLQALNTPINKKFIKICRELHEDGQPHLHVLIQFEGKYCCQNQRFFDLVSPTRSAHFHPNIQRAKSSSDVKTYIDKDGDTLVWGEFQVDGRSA
Protocol: as §1

[9] = system: T9, Rep nickase domain of tomato yellow leaf curl virus
T9 sequence (Rep 1-136, printed without the tag): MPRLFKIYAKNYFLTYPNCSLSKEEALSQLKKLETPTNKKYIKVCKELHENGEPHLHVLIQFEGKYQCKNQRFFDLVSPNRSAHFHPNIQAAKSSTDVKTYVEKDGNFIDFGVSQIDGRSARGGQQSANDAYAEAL
Protocol: as §1

[10] = system: T10, Rep nickase domain of wheat dwarf virus
T10 sequence (Rep 1-137, printed without the tag): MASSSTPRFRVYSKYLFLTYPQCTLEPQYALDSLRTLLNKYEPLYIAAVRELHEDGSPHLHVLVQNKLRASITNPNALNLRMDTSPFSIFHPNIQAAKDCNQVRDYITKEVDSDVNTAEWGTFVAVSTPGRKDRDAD
Protocol: as §1

Sequence	uncleaved DNA left (log2) [1]	uncleaved DNA left (log2) [2]	uncleaved DNA left (log2) [3]	uncleaved DNA left (log2) [4]	uncleaved DNA left (log2) [5]	uncleaved DNA left (log2) [6]	uncleaved DNA left (log2) [7]	uncleaved DNA left (log2) [8]	uncleaved DNA left (log2) [9]	uncleaved DNA left (log2) [10]
GAACGGT	0.0446	0.0165	0.517	1.37	0.104	1.9	0.0342	0.183	-0.0349	0.0675
CGTACAC	0.093	0.124	0.231	-0.00801	0.136	-0.143	0.0728	0.0509	0.18	0.162
GCCTGTA	0.0333	0.0423	0.219	0.131	0.12	0.267	0.101	0.0915	-0.0143	-0.0126
GAATTAT	-1.15	-0.111	-3.01	-2.58	-0.14	-0.582	-3.24	-1.67	0.0122	-2.68
TCACAGA	0.0167	-0.122	-0.0667	-0.522	-0.0711	-0.76	0.13	0.0536	0.00913	0.0156
GAAGCAA	0.025	0.00655	0.221	0.669	0.0764	0.596	0.0579	0.0922	0.0447	0.00146
AAATAAA	-0.0949	0.108	-0.242	-0.697	0.132	-0.829	-0.186	0.184	-0.0476	0.00871
CCCGATA	-0.15	0.0264	0.0152	-0.651	0.113	-0.412	0.102	0.0903	0.0124	0.0395
CCATGCG	-0.0368	-0.146	-0.239	1.32	-0.0856	0.876	0.0725	-0.151	-0.0741	-0.0665
GCGTCGA	-0.135	0.037	-0.0882	-0.119	-0.0544	-0.526	-0.0489	0.102	0.0887	0.0396
CCCATCG	-0.098	-0.0437	-0.708	0.315	-0.00963	-0.841	0.0968	-0.309	0.0134	-0.143
AAGCACT	0.115	0.0574	-0.0547	-1.78	0.0866	0.456	-3.03	0.11	-0.0465	0.107
GCTTCTA	-0.0354	0.108	0.108	0.0863	0.0892	0.555	-0.074	0.0786	0.0633	0.0528
CATGAAA	0.0532	0.0775	-0.0657	-0.494	0.0373	-0.851	0.16	0.0993	0.00945	0.0576
TGGTCCC	0.00715	0.117	0.323	0.684	-0.0397	1.35	-0.0357	-0.116	0.0471	-0.0197
CTGTGTC	-0.00346	-0.0627	-0.0608	-0.382	-0.256	-0.952	-0.0799	-0.182	0.00176	-0.0412
GATACTA	0.0606	0.101	0.153	0.0982	0.152	0.764	0.00934	0.118	0.117	0.202
CCGGATC	-0.22	-0.209	0.149	0.411	-0.369	0.647	0.0351	0.0896	-0.191	-0.144
TTGAGGA	0.0361	-0.0879	0.0133	0.11	0.0404	-0.467	0.0488	0.101	-0.055	-0.117
TTGGCAT	0.15	0.137	0.584	1.49	0.0548	1.71	0.237	0.023	0.138	0.177

Sequence	uncleaved DNA left (log2) [1]	uncleaved DNA left (log2) [2]	uncleaved DNA left (log2) [3]	uncleaved DNA left (log2) [4]	uncleaved DNA left (log2) [5]	uncleaved DNA left (log2) [6]	uncleaved DNA left (log2) [7]	uncleaved DNA left (log2) [8]	uncleaved DNA left (log2) [9]	uncleaved DNA left (log2) [10]
GGGGGAA	0.1	0.0725	0.89	2.01	0.0143	2.37	0.158	0.154	0.0767	0.157
CAGAGCT	-0.0773	-0.167	-0.356	-1.53	-0.0102	-0.858	-2.64	-0.0662	0.0497	-0.00353
GAGGGAG	0.236	0.212	0.19	0.721	0.0785	0.181	0.355	0.196	0.13	0.0961
GGCGTAA	-0.0323	0.031	0.0962	0.599	0.0569	0.86	-0.0365	0.0394	0.0602	0.02
CAACGGC	-0.0586	-0.0592	-0.263	-0.624	-0.116	-0.922	-0.0628	-0.0666	-0.0431	-0.152
GCAGATA	-0.169	-0.0918	-0.122	-0.468	-0.0299	0.0403	0.045	-0.02	-0.103	0.0229
TACATGC	0.0201	-0.0672	-0.724	-0.539	0.048	-1.29	0.131	-0.13	-0.0218	-0.0941
TTGTCAC	0.0196	-0.0674	0.0203	0.0537	-0.00394	-0.676	-0.149	-0.157	0.106	0.026
GCCAGAT	-0.0391	0.0211	0.244	0.832	-0.183	0.941	0.124	0.0797	-0.136	0.0436
CTCTAGA	0.0133	0.0572	-0.189	-0.287	0.0254	-0.892	0.0869	0.098	-0.0061	-0.0422
CCGTTAT	-0.269	-0.115	0.0762	-0.463	-0.0406	-0.147	-2.17	0.00215	0.0264	-0.116
CTAGCCC	0.0197	-0.0625	0.0385	-0.349	-0.198	-0.491	-0.0388	-0.00601	-0.0384	-0.123
TACTGTG	0.106	-0.0554	-0.653	-0.538	-0.0448	-1.14	0.00621	-0.0903	-0.00397	-0.141
GAAGGGC	0.108	0.177	0.646	1.16	0.121	1.06	0.13	0.13	0.0768	0.0526
GGGTACG	0.0587	-0.00498	0.717	1.71	-0.0678	2.01	0.136	0.0156	-0.00965	0.0782
ATTGGTA	-0.0192	-0.0642	0.0211	0.0072	0.111	0.0983	-0.0191	0.169	0.0453	0.205
AGCGTCC	0.0529	-0.007	0.132	0.373	-0.0805	0.663	0.0387	0.0866	0.149	0.116
CTTGTGT	0.23	0.0257	-0.667	-0.977	0.128	-0.911	0.175	0.00273	0.201	-0.0378
AGGGGTC	-0.0254	0.0353	0.273	1.17	-0.0695	1.27	0.187	0.0531	-0.0208	0.0769
CCTGCGA	-0.0345	-0.329	-0.794	-0.27	-0.0493	-0.833	-0.108	-0.166	-0.183	-0.183

Sequence	uncleaved DNA left (log2) [1]	uncleaved DNA left (log2) [2]	uncleaved DNA left (log2) [3]	uncleaved DNA left (log2) [4]	uncleaved DNA left (log2) [5]	uncleaved DNA left (log2) [6]	uncleaved DNA left (log2) [7]	uncleaved DNA left (log2) [8]	uncleaved DNA left (log2) [9]	uncleaved DNA left (log2) [10]
GCCGTCG	-0.0107	-0.0187	-0.689	-0.0132	0.0565	-0.486	0.188	-0.0677	-0.129	-0.134
CTCCTTA	-0.0214	-0.0821	-0.0647	-1.2	0.0297	-0.535	-0.193	-0.208	-0.0294	0.0399
GTTCCGC	0.0635	0.0946	0.211	0.658	-0.0269	0.559	0.0814	0.0557	0.0815	0.185
GCGCCGC	-0.169	0.059	-0.185	-0.0151	-0.0954	-0.116	0.0898	-0.133	-0.00696	-0.0562
CTCTTAG	0.0448	-0.0385	-0.885	-0.324	-0.133	-1.13	0.155	-0.0269	-0.00265	-0.0942
GAGGCTT	-0.115	0.0294	0.674	1.26	-0.115	2.03	-1.91	0.0299	0.0441	0.109
CACGAGG	0.0469	-0.0264	0.206	0.85	0.0949	0.34	0.119	0.16	-0.0757	-0.000524
TACCTCA	-0.127	-0.0371	-0.223	-2.38	-0.174	-0.259	-0.742	-0.0721	0.00587	0.00587
CGCAGGC	0.0725	-0.0189	0.0846	0.155	0.153	-0.432	0.214	-0.0479	0.0407	0.00948
ACGTGCG	-0.0503	-0.111	0.0664	1.43	-0.0934	1.4	0.0979	-0.121	-0.00349	-0.152
CAAAAGC	0.017	0.0389	-0.285	-0.493	0.018	-1.01	0.122	0.0374	0.0742	-0.0907
AGACGTA	0.0279	0.189	0.259	-0.867	0.083	1	-0.0157	0.0995	-0.00532	0.0222
ATGGTTA	0.0556	0.0586	-0.0762	-0.108	-0.00346	0.723	0.0608	0.0798	-0.11	0.0149
GTTGTTG	0.0843	-0.0941	-0.0859	-0.0247	-0.023	-0.488	-0.0692	-0.0328	-0.00743	-0.125
GAAAATT	0.0652	0.0485	-2.4	-2.46	0.00693	0.915	-1.85	-0.265	0.0353	-0.853
ATAGCTT	0.0364	-0.106	0.0136	-1.12	-0.063	0.382	0.0285	0.088	-0.196	-0.000365
GGCCTTC	-0.0521	0.0728	0.441	1.09	-0.0162	1.64	0.0735	-0.166	0.153	0.0544
GGTGCGC	0.116	-0.137	-0.196	0.262	0.0895	-0.145	0.0873	-0.00065	-0.0159	0.0431
AATGCTA	-0.149	0.0179	-0.0757	-0.525	-0.0567	0.0177	-0.161	-0.0636	-0.0247	-0.102
AGGAGCG	0.0559	0.00796	-0.764	-0.161	0.156	-0.911	0.258	0.068	0.0795	-0.0531
